Laboratory results from the RNAGym collection of RNA variant scans (doi:10.7554/elife.90254).
Read counts are not given, so values of variants with three or more changes are uncertain.

B1: LINE1-mini (parent)
chain: GGCAGAGCUCAACACAGCGUGGCAAAGUGGCUGUGGCUAGACUGCC

Variants of: B1
Assay: self-cleavage, relative activity (ratio to wild type); higher = more cleavage; in vitro, sequencing; the parent is a self-cleaving ribozyme

| Variant | self-cleavage |
| --- | --- |
| GGCAUAGCUCAACACAGCGUGGCAAAAUGGCGGUGGCUAGCAUGCC [G5U G27A U32G A41C C42A] | 0.02 |
| GGCAUAGCUCAACACAGCGUGUCAAAGUGGCUGUGGCUCGACUGCC [G5U G22U A39C] | 0.03 |
| GGCAGCGCUCUACACAGCGUGGAAAAGUGGCUGUGGCUACACUGGC [A6C A11U C23A G40C C45G] | 0.01 |
| GGCAUAGCUCAACACAGCCAGGCAAAGUGGCUGUGGCUCGACUGCC [G5U G19C U20A A39C] | 0.02 |
| GGCAUAGCUCAACACAGCGUGACAAAGUAGCUGUGGCUGGACUGCC [G5U G22A G29A A39G] | 0.04 |
| GGCAUAGCUCAACACAGCAUUGGAAAGUGGCUGUGGCUGGACUGCC [G5U G19A G21U C23G A39G] | 0.07 |
| GGCAUAGCGCAAAACAGCUUGGCAAAGUGGUUGUGGCUAGACUGCU [G5U U9G C13A G19U C31U C46U] | 0.02 |
| GGCAGCGCUCUACACAGCGUGGCCAAGUGGCUGUGGCUAGACUGCC [A6C A11U A24C] | 0.02 |
| GGCAUAGCUCAACACAGCGUGGCAAAGCGGCUGUGGCUAGACUGCU [G5U U28C C46U] | 0.02 |
| GGCAUAGCUCAACACAGCGUCGCAAAGUGGCUGUUGCUAGACUGCC [G5U G21C G35U] | 0.05 |
| GGCAUAGCUCAACACAGCGUGGCAAAGUGGCUGUUGUUAGACUGCC [G5U G35U C37U] | 0.07 |
| GGCAUAGCUCAACACAGCGUGGCAAAGCGGCUAUGGCUAUACUGCC [G5U U28C G33A G40U] | 0.02 |
| GGCAGCGCUCCAAAAAGCGUGGCAAAGUGGCUGUGGAUAGACUGGG [A6C A11C C13A C15A C37A C45G C46G] | 0.01 |
| GGCAUAGCUCAACACAGCGUGGCAAAGUGCCGGUGGCUAGACUGCC [G5U G30C U32G] | 0.04 |
| GGCAUAGCUCAACACAACGUGGCAAAGUGACUGUGGCUAGACUGCC [G5U G17A G30A] | 0.04 |
| GGCAUAGCUCAACACAGCAUGGCAAAGUGGCGGUGGCUAGACUGCC [G5U G19A U32G] | 0.1 |
| GGCAUAGCUCAACACAGCGUGGCAAAGUGACUCUGGCUAGUCUGCC [G5U G30A G33C A41U] | 0.03 |
| GGCAUAGCUCAACACAGCGUGGCAAAGCGGCUGUGGCUAGACCGCC [G5U U28C U43C] | 0.03 |
| GGCAUAGCUCAACACAGCGUGACAAAGUGUCUGUGGCUAGACUGCC [G5U G22A G30U] | 0.05 |

| Variant | self-cleavage |
| --- | --- |
| GGCAUAGCUCAACACAGCGUUGCAAAGGGACUGGGGCUAAACUGCC [G5U G21U U28G G30A U34G G40A] | 0.01 |
| GGCAGCGCUCAACUCACCGUUGCAAAGUCGCUGUGGCUAGACUGCC [A6C A14U G17C G21U G29C] | 0.03 |
| GGCAUAGCUCAACACAGCGUGGCAAAGUGGCUAUGGCUAGACUCCA [G5U G33A G44C C46A] | 0.05 |
| GGCAUAGCUCAACACAGCGUGGCAAAGUUGCUGUGGCUAGGCUGCC [G5U G29U A41G] | 0.07 |
| GGCAUAGCUCAACACAGCGGGGCCAAGUGGCUGUGUCUAGACUGCC [G5U U20G A24C G36U] | 0.02 |
| GGCAGCGCUCAACACCGCGUGGCAAAGUGGCUUUGGCUAGACUGCC [A6C A16C G33U] | 0.02 |
| GGCAUAGCUCAACACAGCGUGGCAAAGUGACUGUGACUAGACUGCC [G5U G30A G36A] | 0.32 |
| GGCAGCGCUCGACACAGCGUGGCAAAGAGGCUGUGGCUAGACUGCC [A6C A11G U28A] | 0.07 |
| GGCAUAGCCCAACAAAGCGUGACAAAGUGGCUGUGGCUAGACUGCC [G5U U9C C15A G22A] | 0.03 |
| GGCAUAGCUCAACACAGCGUGGCAAAGUUGCUGUGGCUAGAGUGCA [G5U G29U C42G C46A] | 0.01 |
| GGCAUAGCUCAACACAGCGGGUCAAAGUGGCUGUGGCUAGAUUCCC [G5U U20G G22U C42U G44C] | 0.05 |
| GGCAUAGCUCAACACAGCGUGGCAAAGUGGCCGUGGUUAGACUGCC [G5U U32C C37U] | 0.18 |
| GGCAGCGCUCAGCACAGCGUGGCAAAGUGGCUGUGGCUAGACUCCC [A6C A12G G44C] | 0.02 |
| GGCAGCGCUCAACACGUAGUGGCAAGGUGGCUGUGGCGAGACUGCC [A6C A16G G17U C18A A26G U38G] | 0.02 |
| GGCAGCGCUCAACGCAGCGUGUCAAAGUGGCUGUGGCUAGGCUGCA [A6C A14G G22U A41G C46A] | 0.12 |
| GGCAUAGCUCAACACAGCGUGGCAAAGUAUCUGCGGUUAGACUGCC [G5U G29A G30U U34C C37U] | 0.04 |
| GGCAGCGCUCUACACAGCGUGGCAACGUUGCUGUGUCUAGACUGCC [A6C A11U A26C G29U G36U] | 0 |
| GGCAUAGCUCAACACAGCAUGGCAAAUUGAGUAUGGCUAGACUGCC [G5U G19A G27U G30A C31G G33A] | 0.05 |
| GGCAUAGCUCAACACAGCAUGGCAAAGUGGCUGUGGCUAGACUCCC [G5U G19A G44C] | 0.05 |

| Variant | self-cleavage |
| --- | --- |
| GGCAUAGCUCAACACAGCGUUUCAAAGUGGCUGUGGCUAGACUGCC [G5U G21U G22U] | 0.11 |
| GGCAUAGCUCAACACAGCGUUCCAAAGUGGCUGUGGCUAGACUGCC [G5U G21U G22C] | 0.38 |
| GGCAUAGCUCAACACAGCGUCGCAAAGUAGCUUUGGCUAGACUGCC [G5U G21C G29A G33U] | 0.06 |
| GGCAGCGCUCAACACUGCGUGGCAAAGUAGCUGUGGCUAGACUGCC [A6C A16U G29A] | 1.34 |
| GGCAUAGCACAUCACAGCGUGGCAUAGUGGCUGAGGUUAGACUGCC [G5U U9A A12U A25U U34A C37U] | 0.01 |
| GGCAUAGCUCAACACAGCGUCGCAAAGUGGCUGUGGCUAGACUACC [G5U G21C G44A] | 0.02 |
| GGCAUAGCUCAACACAGCGAGGCAAAGUGGCUGUGGCUAGGCUGCC [G5U U20A A41G] | 0.05 |
| GGCAUAGCUCAACACAGCAUGGCAAAGUGGCUGUGGCUCGACUGCC [G5U G19A A39C] | 0.03 |
| GGCAUAGCUCAACACAGCGUGGCAAAGUCGCUGUGUCUUGACUGCC [G5U G29C G36U A39U] | 0.01 |
| GGCAUAGCUCAACACAGCGUGGCAAAGUGCCUGUGGCUUGACUGCC [G5U G30C A39U] | 0.01 |
| GGCAUAGCUCAACACAGCGUGGCAAAUUAGCUGUGGCUAGACGGCC [G5U G27U G29A U43G] | 0 |
| GGCAGCGCUCAACACUGCGAGGAAAAGUGGCUGUGGCUAGACUGCC [A6C A16U U20A C23A] | 0.1 |
| GGCAUAGCUCAACACAGCGUGGCAAAGUGCCUGUGGCUAGAUUGCC [G5U G30C C42U] | 0.02 |
| GGCAUAGCUCAACACAGCGUCGCAAAGUGGCUGUGGCUAGACCGCC [G5U G21C U43C] | 0.05 |
| GGCAGCGCUCAACACUGCGUGGCAAAGUGGCUGUGGCGAGACUGCC [A6C A16U U38G] | 0.01 |
| GGCAUAGCUCAACACAGCGUGGCAAAGUGGCUAUGGAUAGUCUGCC [G5U G33A C37A A41U] | 0.09 |
| GGCAGCGCUCAACGCAGCGUGGCAAAGUGGCUGUGGCUCGACUGUC [A6C A14G A39C C45U] | 0 |
| GGCAUAGCUCAACACAGCGUGGCAAAGUGGCUGUGGCUACACUGCA [G5U G40C C46A] | 0.01 |
